Calls of active or inactive are those of the source. Unless noted, calls follow the shape of the dose curve; as a rule, active = well fitted curve in the direction sought with a large enough effect in the repeat runs; inconclusive = weak or mixed curves; inactive = no such curve, though single readings can be large; an effect the other way counts as inactive or inconclusive.
Columns and labels:
[1] = qHTS assay for small molecule agonists of the p53 signaling pathway (AID 651631; calls by dose curve; also: potency is read from the fitted curve at half-maximal effect; nearly all actives have a fitted effect of over 15% in size); settings: HCT-116 p53RE-bla reporter, beta-lactamase FRET ratio, 16 h; activation: at 73.3 µM (top of the series) unless noted
How it was run: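 Beta-lactamase reporter activity under p53 response elements was quantified in HCT-116 cells by FRET fluorescence, following 16 h incubation with test compounds at 37 °C and 2 h substrate development at room temperature.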

[2] = qHTS assay to identify small molecule antagonists of the androgen receptor (AR) signaling pathway - cell viability counter screen (AID 743033; also: potency is read from the fitted curve at half-maximal effect; nearly all actives have a fitted effect of over 45% in size); settings: AR-bla HEK293 viability, CellTiter-Glo luminescence, 16 h; activity change, negative = cytotoxicity: at 58.5 µM (top of the series) unless noted
[3] = qHTS assay to identify small molecule antagonists of the androgen receptor (AR) signaling pathway using the MDA cell line - cell viability counter screen (AID 743041; also: nearly all actives have a fitted effect of over 45% in size; also: potency is read from the fitted curve at half-maximal effect); settings: MDA-kb2 viability, CellTiter-Fluor, 16 h, cells co-treated with R1881 androgen agonist; viability change, negative = cytotoxic: at 70.3 µM (top of the series)
How it was run: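 qHTS viability read-out; MDA-kb2 AR-luc; R1881-stimulated; 16 h exposure at 37C, 0% CO2; CellTiter-Fluor, 30 min; fluorescence intensity.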

[4] = qHTS assay to identify small molecule antagonists of the thyroid receptor (TR) signaling pathway - cell viability counter screen (AID 743064); settings: GH3.TRE-Luc viability, CellTiter-Fluor, 24 h; activity change, negative = cytotoxic: at 70.3 µM (top of the series) unless noted; also: potency is read from the fitted curve at half-maximal effect; nearly all actives have a fitted effect of over 50% in size
How it was run: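 CellTiter-Fluor readout, 30 min at 37 °C/5% CO2, following 23.5 h incubation of GH3.TRE-Luc cells with test compound and 1 nM T3 (final).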

[5] = qHTS assay to identify small molecule antagonists of the estrogen receptor alpha (ER-alpha) signaling pathway using the BG1 cell line - cell viability counter screen (AID 743081); settings: BG1Luc4E2 viability, CellTiter-Fluor, 22 h; activity change, negative = cytotoxicity: at 70.3 µM (top of the series) unless noted;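 also: compound given together with 17beta-estradiol as the ER stimulus; potency is read from the fitted curve at half-maximal effect; nearly all actives have a fitted effect of over 45% in size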
[6] = biological target: Peroxisome proliferator-activated receptor gamma (Homo sapiens) (UniProt P37231); test: qHTS assay to identify small molecule agonists of the peroxisome proliferator-activated receptor gamma (PPARg) signaling pathway (AID 743094; active = well fitted activation curve with a large enough effect in the signal ratio in the repeat runs, not every such curve was filed as active; inconclusive = weak or mixed curves, or effect the other way; inactive = no such curve, though single readings can be large or run the other way; the % refers to the signal ratio; also: potency is read from the fitted curve at half-maximal effect; as to activation: % is scaled to controls: 0 for no effect and ±100 for the full control effect); settings: HEK293H PPARg-UAS-bla, beta-lactamase FRET ratio, 17 h; activation: at 57 µM (top of the series) unless noted
UniProt P37231, sequence (P37231 whole entry, looked up): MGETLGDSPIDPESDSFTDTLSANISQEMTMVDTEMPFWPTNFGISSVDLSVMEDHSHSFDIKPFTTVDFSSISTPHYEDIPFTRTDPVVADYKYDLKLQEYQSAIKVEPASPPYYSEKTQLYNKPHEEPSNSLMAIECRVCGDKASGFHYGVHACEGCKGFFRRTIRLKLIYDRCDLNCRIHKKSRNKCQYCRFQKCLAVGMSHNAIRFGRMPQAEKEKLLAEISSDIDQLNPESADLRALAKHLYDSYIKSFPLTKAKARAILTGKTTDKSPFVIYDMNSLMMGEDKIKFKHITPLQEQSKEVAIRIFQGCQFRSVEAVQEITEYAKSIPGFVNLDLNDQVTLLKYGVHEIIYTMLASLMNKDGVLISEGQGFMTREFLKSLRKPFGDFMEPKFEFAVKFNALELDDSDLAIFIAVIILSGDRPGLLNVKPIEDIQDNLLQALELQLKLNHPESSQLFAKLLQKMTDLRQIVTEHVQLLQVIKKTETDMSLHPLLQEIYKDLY
How it was run: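 Agonism was assessed in a beta-lactamase reporter system, HEK293H cells with a stably integrated UAS-bla construct under PPARg control; the 17 h treatment at 37C preceded a 1 h room-temperature FRET substrate read.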

[7] = biological target: Nuclear receptor subfamily 1 group I member 2 (Homo sapiens) (UniProt O75469); test: Human pregnane X receptor (PXR) activation by small molecules, qHTS assay (AID 1346985); settings: DPX-2 HepG2 CYP3A4-luciferase, 24 h; series mostly up to 38.3 µM; also: nearly all actives have a fitted effect of over 40% in size; also: potency is read from the fitted curve at half-maximal effect; as to activation: % is scaled to controls: 0 for no effect and ±100 for the full control effect
How it was run: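 DPX-2 cells (HepG2 co-transfected with a PXR response element and a CYP3A4-promoter luciferase construct) were seeded at 2,000 per well, rested 5 hr at 37C, then exposed to DMSO-dissolved compounds for 24 hr. Activation was read as luciferase luminescence.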

[8] = biological target: Glucocorticoid receptor (Homo sapiens) (UniProt P04150); test: qHTS assay to identify small molecule agonists of the glucocorticoid receptor (GR) signaling pathway (AID 720691; active = well fitted activation curve with a large enough effect in the signal ratio in the repeat runs, not every such curve was filed as active; inconclusive = weak or mixed curves, or effect the other way; inactive = no such curve, though single readings can be large or run the other way; the % refers to the signal ratio; also: potency is read from the fitted curve at half-maximal effect; as to activation: % is scaled to controls: 0 for no effect and ±100 for the full control effect); settings: GR-bla HeLa, beta-lactamase reporter ratio, 18 h; activation: at 62.4 µM (top of the series) unless noted
UniProt P04150, sequence (P04150 whole entry, looked up): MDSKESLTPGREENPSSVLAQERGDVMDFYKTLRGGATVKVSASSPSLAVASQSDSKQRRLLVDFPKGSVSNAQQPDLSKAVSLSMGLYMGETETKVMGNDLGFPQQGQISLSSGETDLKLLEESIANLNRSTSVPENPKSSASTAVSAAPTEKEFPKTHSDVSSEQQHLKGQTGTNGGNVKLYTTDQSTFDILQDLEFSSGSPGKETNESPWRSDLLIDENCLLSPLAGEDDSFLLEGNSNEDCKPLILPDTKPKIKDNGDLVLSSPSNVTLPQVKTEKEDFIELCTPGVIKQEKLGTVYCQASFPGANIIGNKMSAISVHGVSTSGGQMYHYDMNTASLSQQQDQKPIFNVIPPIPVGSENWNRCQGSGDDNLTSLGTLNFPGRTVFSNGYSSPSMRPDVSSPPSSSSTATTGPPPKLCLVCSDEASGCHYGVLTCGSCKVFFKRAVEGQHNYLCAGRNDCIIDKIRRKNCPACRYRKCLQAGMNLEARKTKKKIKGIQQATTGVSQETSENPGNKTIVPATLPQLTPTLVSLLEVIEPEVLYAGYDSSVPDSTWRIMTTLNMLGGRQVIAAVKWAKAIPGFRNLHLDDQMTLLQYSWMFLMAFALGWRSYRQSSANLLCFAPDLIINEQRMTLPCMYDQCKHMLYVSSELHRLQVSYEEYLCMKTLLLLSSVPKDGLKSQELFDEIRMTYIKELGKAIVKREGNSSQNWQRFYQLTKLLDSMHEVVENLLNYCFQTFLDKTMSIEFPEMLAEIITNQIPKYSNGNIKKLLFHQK
How it was run: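 Compounds in DMSO, alongside positive controls, were added to GR-bla HeLa reporter cells and incubated 18 h at 37 C; GRE-driven beta-lactamase was detected by fluorescence after 2 h with FRET substrate at room temperature.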

[9] = qHTS assay for identifying genotoxic compounds that show differential cytotoxicity against isogenic chicken DT40 cell lines with known DNA damage response pathways - Rev3 mutant cell line (AID 743014); settings: chicken DT40 Rev3-/- viability, CellTiter-Glo, 40 h; activity, negative = cytotoxicity: at 68.4 µM (top of the series) unless noted; also: potency is read from the fitted curve at half-maximal effect; nearly all actives have a fitted effect of over 55% in size
[10] = qHTS assay to identify aromatase inhibitors - cell viability counter screen (AID 743084); settings: MCF-7 aro ERE viability, CellTiter-Fluor, 24 h; activity change, negative = cytotoxicity: at 70.3 µM (top of the series) unless noted;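 also: cells stimulated with testosterone during compound exposure; nearly all actives have a fitted effect of over 55% in size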; also: potency is read from the fitted curve at half-maximal effect
[11] = qHTS assay for small molecule disruptors of the mitochondrial membrane potential (AID 720635); settings: HepG2 mitochondrial membrane potential, Mito-MPS dye ratio; ratio activity, negative = MMP loss: at 83.2 µM (top of the series) unless noted; also: potency is read from the fitted curve at half-maximal effect
How it was run: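 HepG2 cells (2,000/well) attached overnight at 37C, then took compound for 1 hr at 37C, 5% CO2. Mito-MPS dye was added for 30 min; fluorescence was read at 490/535 nm (monomers) and 540/590 nm (aggregates).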

[12] = biological target: Glucocorticoid receptor (Homo sapiens) (UniProt P04150); test: qHTS assay to identify small molecule antagonists of the glucocorticoid receptor (GR) signaling pathway (AID 720692; active = well fitted inhibition curve with a large enough effect in the signal ratio in the repeat runs, not every such curve was filed as active; inconclusive = weak or mixed curves, or effect the other way; inactive = no such curve, though single readings can be large or run the other way; the % refers to the signal ratio; also: potency is read from the fitted curve at half-maximal effect); settings: GR-bla HeLa, beta-lactamase FRET ratio, dexamethasone-stimulated, 18 h; activity change, negative = inhibition: at 58.5 µM (top of the series) unless noted
How it was run: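 In a 1536-well cell format, compounds were added 4 h after seeding GR-bla HeLa cells, together with dexamethasone at 5 nM final; reporter activity was measured by FRET-substrate fluorescence following 18 h at 37 C.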

[13] = qHTS assay to identify small molecule antagonists of the glucocorticoid receptor (GR) signaling pathway - cell viability counter screen (AID 720693); settings: GR-bla HeLa viability, CellTiter-Glo luminescence, 18 h, with 5 nM dexamethasone present; viability change, negative = cytotoxic: at 58.5 µM (top of the series); also: potency is read from the fitted curve at half-maximal effect; nearly all actives have a fitted effect of over 55% in size
[14] = biological target: Estrogen receptor (Homo sapiens) (UniProt P03372); test: qHTS assay to identify small molecule antagonists of the estrogen receptor alpha (ER-alpha) signaling pathway (AID 743069; active = well fitted curve in the direction sought with a large enough effect in the signal ratio in the repeat runs, not every such curve was filed as active; inconclusive = weak or mixed curves, or effect the other way; inactive = no such curve, though single readings can be large or run the other way; the % refers to the signal ratio; also: potency is read from the fitted curve at half-maximal effect); settings: HEK293 ER-alpha-UAS-bla, beta-lactamase ratio, antagonist mode; activity, negative = inhibition: at 69.4 µM (top of the series) unless noted
UniProt P03372, sequence (P03372 whole entry, looked up): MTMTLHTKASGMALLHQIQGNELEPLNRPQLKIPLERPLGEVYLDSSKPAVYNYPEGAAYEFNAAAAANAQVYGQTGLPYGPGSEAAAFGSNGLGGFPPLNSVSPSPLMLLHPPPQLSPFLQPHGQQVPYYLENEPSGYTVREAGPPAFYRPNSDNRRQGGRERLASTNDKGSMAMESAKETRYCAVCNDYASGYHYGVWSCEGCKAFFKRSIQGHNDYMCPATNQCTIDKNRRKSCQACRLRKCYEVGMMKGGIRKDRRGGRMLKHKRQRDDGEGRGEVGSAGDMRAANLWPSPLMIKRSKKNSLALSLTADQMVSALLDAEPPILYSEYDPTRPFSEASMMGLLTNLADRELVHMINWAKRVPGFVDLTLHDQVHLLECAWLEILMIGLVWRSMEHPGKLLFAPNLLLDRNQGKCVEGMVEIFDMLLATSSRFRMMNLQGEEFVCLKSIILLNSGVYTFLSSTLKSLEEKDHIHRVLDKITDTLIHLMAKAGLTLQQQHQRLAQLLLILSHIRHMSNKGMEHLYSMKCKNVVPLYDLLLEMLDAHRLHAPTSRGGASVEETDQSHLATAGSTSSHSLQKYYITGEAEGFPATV
How it was run: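 Screening used a UAS-driven beta-lactamase reporter integrated into HEK293 cells expressing ER-alpha, stimulated with 17beta-estradiol alongside test compounds over 18 hr at 37C; signal came from LiveBLAzer B/G FRET fluorescence.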

[15] = qHTS assay to identify small molecule antagonists of the estrogen receptor alpha (ER-alpha) signaling pathway - cell viability counter screen (AID 743074; calls by dose curve; also: potency is read from the fitted curve at half-maximal effect; nearly all actives have a fitted effect of over 45% in size); settings: ERalpha-bla HEK293 viability, CellTiter-Glo luminescence, 18 h; series mostly up to 69.4 µM
[16] = biological target: Estrogen receptor (Homo sapiens) (UniProt P03372); test: qHTS assay to identify small molecule agonists of the estrogen receptor alpha (ER-alpha) signaling pathway using the BG1 cell line (AID 743079); settings: BG1Luc4E2 cells, ERE-luciferase agonist, 22 h; activation: at 70.3 µM (top of the series) unless noted; also: nearly all actives have a fitted effect of over 20% in size; also: potency is read from the fitted curve at half-maximal effect
[17] = qHTS assay to identify small molecule antagonists of the estrogen receptor alpha (ER-alpha) signaling pathway using the BG1 cell line (AID 743080; calls by dose curve;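 also: BG1 cells stimulated with 17beta-estradiol alongside compound; potency is read from the fitted curve at half-maximal effect; nearly all actives have a fitted effect of over 25% in size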); settings: BG1Luc4E2 ERE-luciferase antagonist mode, luminescence; activity change, negative = inhibition: at 70.3 µM (top of the series) unless noted
How it was run: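 After 5 days in phenol-red-free 10% charcoal-stripped FBS medium, BG1-Luc-4E2 cells were seeded, left 24 h at 37 C, co-treated with compounds and 17beta-estradiol for 21.5 h, then assayed for viability and luciferase.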

[18] = qHTS assay for identifying genotoxic compounds that show differential cytotoxicity against isogenic chicken DT40 cell lines with known DNA damage response pathways - wild type cell line (AID 743012); settings: DT40 wild type chicken cells viability, CellTiter-Glo, 40 h; activity change, negative = cytotoxicity: at 68.4 µM (top of the series) unless noted; also: potency is read from the fitted curve at half-maximal effect; nearly all actives have a fitted effect of over 60% in size
How it was run: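 Viability of DNA repair-proficient chicken DT40 cells was assessed by CellTiter-Glo luminescence following 40 h compound exposure at 37 C/5% CO2.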

[19] = qHTS assay for identifying genotoxic compounds that show differential cytotoxicity against isogenic chicken DT40 cell lines with known DNA damage response pathways - Rad54/Ku70 mutant cell line (AID 743015); settings: DT40 Rad54/Ku70 mutant viability, CellTiter-Glo, 40 h; activity change, negative = cytotoxicity: at 66.8 µM (top of the series) unless noted; also: potency is read from the fitted curve at half-maximal effect; nearly all actives have a fitted effect of over 60% in size
[20] = tested on: thyroid hormone receptor (rat, GH3 cells); test: qHTS assay to identify small molecule agonists of the thyroid receptor (TR) signaling pathway (AID 743066; calls by dose curve; also: % is scaled to controls: 0 for no effect and ±100 for the full control effect); settings: GH3.TRE-Luc cells, TR agonist luciferase, 24 h; activation: at 83.9 µM (top of the series) unless noted
Tags tell the direction and shape of the fitted curve or compound fluorescence and quenching.

CC(=C\c1ccccc1)/C=C1/SC(=S)N(CC(=O)O)C1=O
inconclusive: Potency [1] 33.5 µM [activator, partial curve, poor fit] | Potency [2] 26.8 µM [rising, single point] | Potency [3] 24.8 µM [cytotoxic, partial curve] | Potency [4] 29.8 µM [cytotoxic, single point] | activation [6] 9.74% | Potency [7] 22.4 µM [activator, single point]
active: Potency [5] 29.8 µM

CCN(CC)Cc1cc(Nc2ccnc3cc(Cl)ccc23)ccc1O
inactive: Potency [8] | Potency [7]
inconclusive: Potency [1] 14.3 µM [activator, single point] | Potency [2] 0.002 µM [cytotoxic, full curve, poor fit] | Potency [3] 11.9 µM [cytotoxic, partial curve, poor fit] | Potency [5] 5.07 µM [cytotoxic, partial curve] | Potency [10] 11.4 µM [cytotoxic, partial curve, poor fit]
active: Potency [9] 7.17 µM

CO[C@H]1C[C@@H]2CC[C@@H](C)[C@@](O)(O2)C(=O)C(=O)N2CCCC[C@H]2C(=O)O[C@H]([C@H](C)C[C@@H]2CC[C@@H](OCCO)[C@H](OC)C2)CC(=O)[C@H](C)/C=C(\C)[C@@H](O)[C@@H](OC)C(=O)[C@H](C)C[C@H](C)/C=C/C=C/C=C/1C
inactive: Potency [16]
active: Potency [11] 21.1 µM | Potency [12] 7.56 µM | Potency [13] 23.9 µM | Potency [4] 3.76 µM | Potency [17] 0.0047 µM | Potency [5] 21.1 µM
inconclusive: Potency [1] 23.7 µM [partial curve] | Potency [3] 37.6 µM [cytotoxic, partial curve] | Potency [14] 23.9 µM [fluorescent, partial curve] | Potency [15] 26.8 µM [cytotoxic, single point] | Potency [6] 7.56 µM [rising, partial curve] | Potency [7] 15.8 µM [activator, partial curve, poor fit]

CCN(CC)CCOc1ccc2nc(N(C)C)sc2c1
inactive: Potency [3]
active: Potency [18] 1.19 µM | Potency [19] 2.11 µM | Potency [16] 26.6 µM
inconclusive: Potency [1] 13.3 µM [rising, partial curve, poor fit] | ratio activity, negative = MMP loss [11] -19.2% | Potency [17] 23.7 µM [rising, partial curve] | Potency [7] 17.8 µM [activator, partial curve, poor fit]

CC[C@H](C)[C@H]1O[C@]2(CC[C@@H]1C)C[C@@H]1C[C@@H](C/C=C(\C)[C@@H](O[C@H]3C[C@H](OC)[C@@H](O[C@H]4C[C@H](OC)[C@@H](O)[C@H](C)O4)[C@H](C)O3)[C@@H](C)/C=C/C=C3\CO[C@@H]4[C@H](O)C(C)=C[C@@H](C(=O)O1)[C@]34O)O2
inconclusive: Potency [1] 5.31 µM [cytotoxic, full curve] | Potency [8] 7.56 µM [falling, full curve] | Potency [12] 15.1 µM [cytotoxic, partial curve] | Potency [9] 4.22 µM [cytotoxic] | Potency [2] 0.19 µM [cytotoxic, full curve] | Potency [16] 13.3 µM [inhibitor] | Potency [17] 21.1 µM [falling, partial curve] | Potency [5] 53.1 µM [cytotoxic, partial curve, poor fit] | activation [6] -8.33%
active: Potency [11] 7.5 µM | Potency [13] 6.01 µM | Potency [18] 3.76 µM | Potency [14] 7.56 µM [inconclusive] | Potency [15] 19 µM
inactive: Potency [7]

CCN(CC)CCC(=O)N1c2ccccc2Sc2ccc(Cl)cc21
inconclusive: Potency [1] 29.8 µM [activator] | ratio activity, negative = MMP loss [11] 28.6% | Potency [12] 23.9 µM [inhibitor, partial curve] | Potency [3] 33.5 µM [cytotoxic, single point] | activation [20] -7.38% [phenotype inactive] | Potency [16] 21.1 µM [inhibitor, partial curve] | Potency [5] 29.8 µM [cytotoxic, single point]
inactive: Potency [10]
active: Potency [4] 23.7 µM | Potency [7] 14.1 µM

— PubChem BioAssay (Tox21)
